Results reported in the supplement of paper PMC12217912.
This is one part of the list. The full chains were built here from the parent and the listed change. Inactive controls read about 0.05.

B1: TEV protease; numbered along this chain (parent)
chain: MGESLFKGPRDYNPISSSICHLTNESDGHTTSLYGIGFGPFIITNKHLFRRNNGTLVVQSLHGVFKVKDTTTLQQHLVDGRDMIIIRMPKDFPPFPQKLKFREPQREERICLVTTNFQTKSMSSMVSDTSCTFPSGDGIFWKHWIQTKDGQCGSPLVSTRDGFIVGIHSASNFTNTNNYFTSVPKNFMELLTNQEAQQWVSGWRLNADSVLWGGHKVFMVKPEEPFQPVKEATQL

Variants of: B1
Assay: raw area under fraction-flipped curve 0-4 h after induction (AUC4h, not background-subtracted), DNA-recorder readout of cleavage of the substrate (dimensionless); higher = more cleavage of the substrate by the protease variant
Conditions: temperature: 34 °C; time window: 0-4 h after rhamnose induction
Protocol: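 In vivo DNA recorder in E. coli TOP10(DE3) ΔrhaA at 34 °C. Each TEVp single-site mutant (parent TEVp 0) is paired with a single-site variant of the 7-mer TEVs (canonical ENLYFQ|S). The substrate sits between flexible linkers in a Bxb1-sfGFP-TEVs-SsrA fusion, so cleavage stabilises Bxb1 and speeds flipping of a recombination array, read by NGS. The value is the raw area under the fraction-flipped curve over 0-4 h after rhamnose induction (AUC4h), with ≥20 reads per time point. It is not background-subtracted; inactive controls average about 0.047.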
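Note: Bxb1 expression induced with 0.2% (w/v) L-rhamnose at OD600 near 0.5, cultures sampled hourly, flipped fraction per protease–substrate barcode pair counted by paired-end Illumina sequencing.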

Row | Variant | area with substrate CNLYFQS | area with substrate DNLYFQS | area with substrate GNLYFQS | area with substrate HNLYFQS | area with substrate LNLYFQS | area with substrate PNLYFQS | area with substrate RNLYFQS | area with substrate VNLYFQS | area with substrate WNLYFQS | area with substrate YNLYFQS | area with substrate FNLYFQS | area with substrate INLYFQS | area with substrate KNLYFQS | area with substrate NNLYFQS | area with substrate QNLYFQS | area with substrate TNLYFQS | area with substrate MNLYFQS | area with substrate SNLYFQS
1 | MGESLFKGPRDYNPISSSICHLTNESDGHTTSLYGIGFGPFIITNKHLFRRNNGTLVVQSLHGVFKVKDTTTLQQHLVDGRDMIIIRMPKDFPPFPAKLKFREPQREERICLVTTNFQTKSMSSMVSDTSCTFPSGDGIFWKHWIQTKDGQCGSPLVSTRDGFIVGIHSASNFTNTNNYFTSVPKNFMELLTNQEAQQWVSGWRLNADSVLWGGHKVFMVKPEEPFQPVKEATQL [Q97A] | 0.0579 | 0.0736 | 0.128 | 0.0635 | 0.063 | 0.0714 | 0.0706 | 0.0591 | 0.0538 | 0.0567 | – | – | – | – | – | – | – | –
2 | MGESLFKGPRDYNPISSSICHLTNESDGHTTSLYGIGFGPFIITNKHLFRRNNGTLVVQSLHGVFKVKDTTTLQQHLVDGRDMIIIRMPKDFPPFPHKLKFREPQREERICLVTTNFQTKSMSSMVSDTSCTFPSGDGIFWKHWIQTKDGQCGSPLVSTRDGFIVGIHSASNFTNTNNYFTSVPKNFMELLTNQEAQQWVSGWRLNADSVLWGGHKVFMVKPEEPFQPVKEATQL [Q97H] | 0.0655 | 0.0809 | – | 0.0651 | 0.0652 | 0.0642 | – | – | 0.0537 | – | 0.0458 | 0.0584 | 0.0623 | 0.061 | 0.0706 | 0.0594 | – | –
3 | MGESLFKGPRDYNPISSSICHLTNESDGHTTSLYGIGFGPFIITNKHLFRRNNGTLVVQSLHGVFKVKDTTTLQQHLVDGRDMIIIRMPKDFPPFPQFLKFREPQREERICLVTTNFQTKSMSSMVSDTSCTFPSGDGIFWKHWIQTKDGQCGSPLVSTRDGFIVGIHSASNFTNTNNYFTSVPKNFMELLTNQEAQQWVSGWRLNADSVLWGGHKVFMVKPEEPFQPVKEATQL [K98F] | 0.0787 | 0.0728 | – | 0.0594 | – | 0.0674 | – | – | – | 0.0414 | – | 0.0909 | 0.0751 | 0.0713 | – | – | – | –
4 | MGESLFKGPRDYNPISSSICHLTNESDGHTTSLYGIGFGPFIITNKHLFRRNNGTLVVQSLHGVFKVKDTTTLQQHLVDGRDMIIIRMPKDFPPFPQNLKFREPQREERICLVTTNFQTKSMSSMVSDTSCTFPSGDGIFWKHWIQTKDGQCGSPLVSTRDGFIVGIHSASNFTNTNNYFTSVPKNFMELLTNQEAQQWVSGWRLNADSVLWGGHKVFMVKPEEPFQPVKEATQL [K98N] | 0.076 | 0.0783 | 0.0691 | 0.0696 | 0.055 | 0.0623 | – | 0.0691 | 0.0651 | 0.0553 | – | 0.0692 | 0.0687 | 0.0844 | – | 0.0675 | 0.0565 | 0.0677
5 | MGESLFKGPRDYNPISSSICHLTNESDGHTTSLYGIGFGPFIITNKHLFRRNNGTLVVQSLHGVFKVKDTTTLQQHLVDGRDMIIIRMPKDFPPFPQPLKFREPQREERICLVTTNFQTKSMSSMVSDTSCTFPSGDGIFWKHWIQTKDGQCGSPLVSTRDGFIVGIHSASNFTNTNNYFTSVPKNFMELLTNQEAQQWVSGWRLNADSVLWGGHKVFMVKPEEPFQPVKEATQL [K98P] | 0.0582 | 0.0839 | – | 0.0579 | 0.0616 | 0.0642 | 0.0831 | 0.0744 | 0.0649 | 0.055 | 0.0695 | 0.0622 | 0.0785 | 0.0512 | – | 0.0513 | 0.0663 | 0.0662
6 | MGESLFKGPRDYNPISSSICHLTNESDGHTTSLYGIGFGPFIITNKHLFRRNNGTLVVQSLHGVFKVKDTTTLQQHLVDGRDMIIIRMPKDFPPFPQSLKFREPQREERICLVTTNFQTKSMSSMVSDTSCTFPSGDGIFWKHWIQTKDGQCGSPLVSTRDGFIVGIHSASNFTNTNNYFTSVPKNFMELLTNQEAQQWVSGWRLNADSVLWGGHKVFMVKPEEPFQPVKEATQL [K98S] | 0.0606 | 0.061 | 0.057 | 0.0555 | – | – | – | – | 0.0616 | 0.0636 | 0.0692 | 0.0666 | 0.0803 | 0.0703 | – | 0.0676 | 0.069 | –
7 | MGESLFKGPRDYNPISSSICHLTNESDGHTTSLYGIGFGPFIITNKHLFRRNNGTLVVQSLHGVFKVKDTTTLQQHLVDGRDMIIIRMPKDFPPFPQKQKFREPQREERICLVTTNFQTKSMSSMVSDTSCTFPSGDGIFWKHWIQTKDGQCGSPLVSTRDGFIVGIHSASNFTNTNNYFTSVPKNFMELLTNQEAQQWVSGWRLNADSVLWGGHKVFMVKPEEPFQPVKEATQL [L99Q] | 0.0682 | 0.0653 | – | 0.0479 | – | – | 0.0676 | – | 0.0237 | – | – | 0.075 | – | 0.052 | – | – | 0.0698 | –
8 | MGESLFKGPRDYNPISSSICHLTNESDGHTTSLYGIGFGPFIITNKHLFRRNNGTLVVQSLHGVFKVKDTTTLQQHLVDGRDMIIIRMPKDFPPFPQKRKFREPQREERICLVTTNFQTKSMSSMVSDTSCTFPSGDGIFWKHWIQTKDGQCGSPLVSTRDGFIVGIHSASNFTNTNNYFTSVPKNFMELLTNQEAQQWVSGWRLNADSVLWGGHKVFMVKPEEPFQPVKEATQL [L99R] | 0.0874 | 0.0553 | 0.0705 | 0.0695 | 0.0676 | 0.0717 | – | 0.0594 | 0.064 | 0.0764 | – | 0.062 | 0.057 | – | – | 0.0885 | 0.068 | 0.0834
9 | MGESLFKGPRDYNPISSSICHLTNESDGHTTSLYGIGFGPFIITNKHLFRRNNGTLVVQSLHGVFKVKDTTTLQQHLVDGRDMIIIRMPKDFPPFPQKYKFREPQREERICLVTTNFQTKSMSSMVSDTSCTFPSGDGIFWKHWIQTKDGQCGSPLVSTRDGFIVGIHSASNFTNTNNYFTSVPKNFMELLTNQEAQQWVSGWRLNADSVLWGGHKVFMVKPEEPFQPVKEATQL [L99Y] | 0.0591 | 0.0698 | 0.0593 | 0.0477 | – | 0.0487 | – | – | 0.0559 | – | 0.0717 | 0.072 | 0.0538 | – | 0.0628 | 0.0818 | – | 0.0767
10 | MGESLFKGPRDYNPISSSICHLTNESDGHTTSLYGIGFGPFIITNKHLFRRNNGTLVVQSLHGVFKVKDTTTLQQHLVDGRDMIIIRMPKDFPPFPQKLGFREPQREERICLVTTNFQTKSMSSMVSDTSCTFPSGDGIFWKHWIQTKDGQCGSPLVSTRDGFIVGIHSASNFTNTNNYFTSVPKNFMELLTNQEAQQWVSGWRLNADSVLWGGHKVFMVKPEEPFQPVKEATQL [K100G] | 0.0655 | 0.0694 | – | 0.0609 | – | 0.0556 | – | 0.0631 | 0.0545 | 0.06 | – | – | – | 0.0529 | – | 0.0664 | 0.0663 | 0.0555
